# Measurements published in PubChem BioAssay AID588855 (National Center for Advancing Translational Sciences (NCATS), 2011).
# Values joined by “and” are separate entries in the source; they are usually repeats but may differ in a detail not shown here. Equal entries are not always repeated. Out of some 410,000 compounds screened, about 5,000 (1.2%) were called active. The shares of active, inactive and inconclusive entries below differ from those in the screen. The call rests on the fitted dose curve; in most records, active means well fitted inhibition curve with a large enough effect; inconclusive means small, poorly fitted or top-dose-only effect; inactive means no such curve, though single readings can be large or run the other way. Potencies beside an inconclusive call are fits to weak or partial responses and may not hold up.
# Experiment: qHTS for Inhibitors of TGF-b; further: nearly all actives have a fitted effect of over 65% in size
# Conditions: HepG2 CAGA-GFP TGF-b/SMAD3 reporter, GFP fluorescence, 18 h, TGF-beta stimulated, 500 pg/mL final; series mostly up to 46.1 µM
# How it was run: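 Inhibition of TGF-beta-driven CAGA-GFP reporter expression in HEPG2 cells is measured by cellular GFP fluorescence after 18 h stimulation with 500 pg/mL recombinant TGF-beta in 1% FBS medium at 37 degrees C.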
# Potency means the concentration at half of the fitted maximal effect; tags describe the fitted curve by direction and shape.
row,SMILES,Potency
1,Cc1cc(/C=N/NC(N)=S)c(C)n1-c1ccc(Cl)cc1,"inconclusive: 12.6 µM [inhibitor, partial curve, poor fit]"
2,Cc1ccc([N+](=O)[O-])cc1NC(=S)NC(=O)c1c(Cl)cnn1C,inactive
3,Cc1nc2c(-c3ccccc3)c(C)nn2c(C)c1CCC(=O)NCCc1ccccc1,"inconclusive: 11.2 µM [inhibitor, partial curve, poor fit]"
4,COc1ccc2cc[nH]c2c1,"inconclusive: 6.31 µM [inhibitor, partial curve]"
5,NC[C@H](Cc1ccccc1)NCCc1cc(C(F)(F)F)cc(C(F)(F)F)c1,"inconclusive: 35.5 µM [inhibitor, single point]"
6,CCCCOc1ccc(/C=N/NC(=O)c2nnn(-c3nonc3N)c2CN2CCCCCC2)cc1,"inconclusive: 7.08 µM [inhibitor, partial curve, poor fit]"
7,O=C(C1=C[C@H](c2csc3ccccc23)C[C@H](OCCCCO)O1)N1CCN(Cc2ccccc2)CC1,"inconclusive: 3.16 µM [inhibitor, partial curve, poor fit]"
8,CCOC(=O)C(C)N1N=C(/C=C/c2ccc(OC)cc2)CCC1=O (stereo not drawn),inactive
9,CCN(Cc1ccccc1)c1cc2c(c3c1ccn3C)C1CCC2C1 (stereo not drawn),"inconclusive: 20 µM [inhibitor, single point]"
10,Cc1ccc(NC(=O)CC(C(=O)O)c2ccccc2)cc1 (stereo not drawn),"inconclusive: 25.1 µM [inhibitor, single point]"
11,c1ccc(CC2CCN(Cc3ccccn3)CC2)cc1,"inconclusive: 10 µM [inhibitor, partial curve, poor fit]"
12,Cc1ccc(/C=C/C(=O)c2c(C)cc(C)[nH]c2=O)cc1,inactive
13,CN(Cc1ccccc1)S(=O)(=O)c1nnc(NC(=O)c2ccccc2Cl)s1,inactive
14,COc1ccc2c(c1)c(CC(=O)Nc1cc(C)ccc1C)c(C)n2C(=O)c1ccc(Cl)cc1,inactive
15,COc1ccc(-c2cn(Cc3ccc(C(=O)c4ccccc4)cc3)nn2)cc1,active: 11.2 µM and active: 10 µM
16,Cc1ccc([N+](=O)[O-])cc1S(=O)(=O)N1CCN(C)CC1,inactive
17,O=C(N/N=C/c1cc([N+](=O)[O-])cc(Br)c1O)C12CC3CCC(CC(C3)C1)C2,"inconclusive: 35.5 µM [inhibitor, single point]"
18,CCOC(=O)C1C(=O)NC(N2CCc3ccccc32)=NC1c1ccccc1 (stereo not drawn),"inconclusive: 6.31 µM [inhibitor, single point]"
19,COc1ccc(-c2nc3ccc(Cl)cn3c2CC(C)(C)C)cc1OC,inactive
20,O=C(c1c(F)cccc1Cl)N1CCN(S(=O)(=O)c2ccc3c(c2)OCCCO3)CC1,"inconclusive: 0.447 µM [inhibitor, full curve, poor fit]"
21,COc1cccc(COC(=O)C2CC(=O)N(Cc3ccc(C)cc3)C2)c1OC (stereo not drawn),"inconclusive: 3.55 µM [inhibitor, single point]"
22,CCCC(NCC(O)COc1ccc(-c2ccccc2)cc1)c1ccccc1 (stereo not drawn),"inconclusive: 11.2 µM [inhibitor, partial curve, poor fit]"
23,NS(=O)(=O)c1ccc(CCNCc2cc(Br)ccc2OCc2ccccc2)cc1,"inconclusive: 20 µM [inhibitor, single point]"

row,SMILES,Potency
1,O=C(NCCn1cc(SCc2ccccc2)c2ccccc21)c1cccs1,"inconclusive: 8.91 µM [inhibitor, partial curve, poor fit]"
2,COc1cc(C(=O)Nc2ccc(C)cn2)ccc1OCC(=O)N1CCOCC1,inactive
3,CCc1c(C)nc2ncnn2c1N1CCCC(C(=O)NCc2ccc3c(c2)OCO3)C1 (stereo not drawn),"inconclusive: 11.2 µM [inhibitor, partial curve]"
4,CCc1ccccc1N1CC(c2nc3ccccc3n2CCOc2ccc(Cl)c(C)c2)CC1=O (stereo not drawn),active: 11.2 µM
5,CCNc1nc(NC(C)(C)C)nc(Oc2ccc(=O)n(-c3ccccc3)n2)n1,"inconclusive: 35.5 µM [inhibitor, single point]"
6,COc1ccc(-n2c(C)c(C(C)=O)c3cc(OCC(N)=O)ccc32)cc1,inactive
7,O=C(c1cccn1-c1nnc(N2CCCCC2)s1)N1CCN(c2ccc(Cl)cc2)CC1,"inconclusive: 35.5 µM [inhibitor, single point]"
8,Nc1cc(-c2ccc(OC(F)(F)F)cc2)nn1-c1ccc(Cl)c(Cl)c1,"inconclusive: 35.5 µM [inhibitor, partial curve, poor fit]"
9,FC(F)(F)c1cc(Cl)c2nc(-c3ccc(Cl)cc3)c(Cc3ccccc3)n2c1,"inconclusive: 28.2 µM [inhibitor, partial curve, poor fit]"
10,CC1=C(/C=C/C(C)=C/C=C/C(C)=C/C(=O)Nc2ccc(O)cc2)C(C)(C)CCC1,"inconclusive: 35.5 µM [inhibitor, single point] and inconclusive: 1 µM [inhibitor, partial curve, poor fit]"
11,O=C(c1cccc(S(=O)(=O)NCc2ccccc2)c1)N1CCN(c2ccccc2Cl)CC1,"inconclusive: 28.2 µM [inhibitor, single point]"
12,O=C(Nc1cccc(-n2cccn2)c1)C1CCCN(Cc2ccc(C#CCCO)cc2)C1 (stereo not drawn),inactive
13,COc1ccc(-c2nc(Cn3c(=O)cc(-c4ccccc4)c4c(C)nn(C)c43)c(C)o2)cc1OC,inactive
14,Cc1cc(NC(=O)c2cccs2)n(-c2nc3ccccc3[nH]2)n1,"inconclusive: 12.6 µM [inhibitor, single point]"
15,CC1CCN(S(=O)(=O)c2ccc3c(ccc(=O)n3CC(=O)NCc3ccc(Cl)cc3)c2)CC1,"inconclusive: 20 µM [inhibitor, single point]"
16,CN(c1ccccc1)c1nc(N)c([N+](=O)[O-])c(N2CCCCC2)n1,inactive
17,Cc1onc(-c2ccccc2)c1C(=O)NNC(=S)NC(=O)c1ccc(F)cc1,"inconclusive: 31.6 µM [inhibitor, single point]"
18,Cc1ccc(NC(=O)CCC(=O)N/N=C/c2ccc([N+](=O)[O-])o2)cc1C,"inconclusive: 17.8 µM [inhibitor, single point]"
19,Cc1ccc(-c2cc3nc(NCCc4ccncc4)n(C)c(=O)c3s2)cc1,"inconclusive: 12.6 µM [inhibitor, partial curve, poor fit]"
20,CCn1c(SCc2ccccc2F)nnc1-c1ccncc1,inactive
21,CSCCC(NC(=O)c1ccc([N+](=O)[O-])cc1Cl)C(=O)OCC(=O)NC1CCCC(C)C1C (stereo not drawn),"inconclusive: 22.4 µM [inhibitor, single point]"
22,CCN(C(=O)COC(=O)c1cc2ccccc2cc1OC)c1c(N)n(Cc2ccccc2)c(=O)[nH]c1=O,inactive
23,COc1ccc(CNC(=O)C(=O)NCC(c2cccnc2)N2CCN(c3ccccc3)CC2)cc1 (stereo not drawn),"inconclusive: 7.08 µM [inhibitor, partial curve]"

row,SMILES,Potency
1,Cc1cc(C)nc(Nc2nc(C(N)Cc3ccccc3)cs2)n1 (stereo not drawn),"inconclusive: 11.2 µM [inhibitor, partial curve]"
2,CCOC(=O)N1CCN(c2cc3nccnc3cc2F)CC1,inactive
3,Cc1cccc2[nH]c3c(N4CC=C(c5ccc(F)cc5)CC4)ncnc3c12,"inconclusive: 20 µM [inhibitor, single point]"
4,CCCN1CCCc2cc(CN(CCCN3CCOCC3)C(=O)Nc3ccc(Cl)c(Cl)c3)ccc21,"inconclusive: 35.5 µM [inhibitor, single point]"
5,CCN(CC)S(=O)(=O)c1ccc(N2CCOCC2)c(NC(=O)c2nn(C(C)C)c(=O)c3ccccc23)c1,inactive
6,Cc1ccc(NC(=S)NNC(=O)c2ccccc2O)c(C)c1,"inconclusive: 35.5 µM [inhibitor, partial curve, poor fit]"
7,COCC(=O)N1CCC(Oc2ccc(C(=O)NCCCC3CCCC3)cc2)CC1,"inconclusive: 35.5 µM [inhibitor, single point]"
8,COc1cccc(NC(=O)CN(C)CC(=O)Nc2ccc3c(c2)OCO3)c1,inactive
9,CC1(C)Cc2c(oc3ncn4ncnc4c23)CO1,inactive
10,CCOC(=O)C1CCN(CCC(=O)Nc2ccc(C)cc2)CC1,inactive
11,COc1ccc(/C=C/C(=O)c2cc(Cl)cc(Cl)c2O)c(OC)c1,inactive
12,CN1CCN(c2ccccc2NC(=O)c2ccc([N+](=O)[O-])o2)CC1,"inconclusive: 2.82 µM [inhibitor, full curve]"
13,Cn1c(=O)[nH]c(N)c(Br)c1=O,inactive
14,O=C(COc1ccc(-c2nnco2)cc1)Nc1c(Cl)cccc1C(F)(F)F,"inconclusive: 6.31 µM [inhibitor, partial curve, poor fit]"
15,O=C(Nc1ccc(N2CCCCC2)c(S(=O)(=O)Nc2ccccc2Cl)c1)c1cccnc1,active: 12.6 µM
16,CCOc1ccc(C(=O)Nc2ccc(S(=O)(=O)NCC3CCCO3)cc2)cc1OCC (stereo not drawn),"inconclusive: 0.1 µM [inhibitor, full curve, poor fit]"
17,CC1CCCC(C)N1C(=O)CSc1nc2ccccc2s1 (stereo not drawn),"inconclusive: 14.1 µM [inhibitor, single point]"
18,COc1ccccc1CNC(=O)C1CCN(S(=O)(=O)Cc2ccccc2)CC1,inactive
19,COc1ccc(-c2csc(NC(=O)c3ccc(S(=O)(=O)N4CCc5ccccc5C4)cc3)n2)cc1,inactive
20,Cc1ccc(Nc2ncnc3c2nc2n3CCCC2)cc1F,inactive
21,CCCCCCN1CCN(C2CN(Cc3ccccc3)S(=O)(=O)C2)CC1 (stereo not drawn),inactive
22,CCOC(=O)c1ccc(NC(=O)Cn2nc(C)c3nn(-c4ccc(Cl)cc4)c(C)c3c2=O)cc1,"inconclusive: 0.501 µM [inhibitor, partial curve, poor fit]"
